From PMC4336329 (PLoS ONE, 2015)
Screen size: about 310,000 compounds; about 2,200 (0.71%) showed an effect of 50% or more. Effects have a minus sign here. The list shows a part of the results.

What follows are compounds tested against human ether-à-go-go-related gene (hERG) potassium channel (human, UniProt Q12809) (assay: primary screen, population patch clamp on CHO cells stably expressing hERG).
Chain of human ether-à-go-go-related gene (hERG) potassium channel (Q12809 whole entry, looked up): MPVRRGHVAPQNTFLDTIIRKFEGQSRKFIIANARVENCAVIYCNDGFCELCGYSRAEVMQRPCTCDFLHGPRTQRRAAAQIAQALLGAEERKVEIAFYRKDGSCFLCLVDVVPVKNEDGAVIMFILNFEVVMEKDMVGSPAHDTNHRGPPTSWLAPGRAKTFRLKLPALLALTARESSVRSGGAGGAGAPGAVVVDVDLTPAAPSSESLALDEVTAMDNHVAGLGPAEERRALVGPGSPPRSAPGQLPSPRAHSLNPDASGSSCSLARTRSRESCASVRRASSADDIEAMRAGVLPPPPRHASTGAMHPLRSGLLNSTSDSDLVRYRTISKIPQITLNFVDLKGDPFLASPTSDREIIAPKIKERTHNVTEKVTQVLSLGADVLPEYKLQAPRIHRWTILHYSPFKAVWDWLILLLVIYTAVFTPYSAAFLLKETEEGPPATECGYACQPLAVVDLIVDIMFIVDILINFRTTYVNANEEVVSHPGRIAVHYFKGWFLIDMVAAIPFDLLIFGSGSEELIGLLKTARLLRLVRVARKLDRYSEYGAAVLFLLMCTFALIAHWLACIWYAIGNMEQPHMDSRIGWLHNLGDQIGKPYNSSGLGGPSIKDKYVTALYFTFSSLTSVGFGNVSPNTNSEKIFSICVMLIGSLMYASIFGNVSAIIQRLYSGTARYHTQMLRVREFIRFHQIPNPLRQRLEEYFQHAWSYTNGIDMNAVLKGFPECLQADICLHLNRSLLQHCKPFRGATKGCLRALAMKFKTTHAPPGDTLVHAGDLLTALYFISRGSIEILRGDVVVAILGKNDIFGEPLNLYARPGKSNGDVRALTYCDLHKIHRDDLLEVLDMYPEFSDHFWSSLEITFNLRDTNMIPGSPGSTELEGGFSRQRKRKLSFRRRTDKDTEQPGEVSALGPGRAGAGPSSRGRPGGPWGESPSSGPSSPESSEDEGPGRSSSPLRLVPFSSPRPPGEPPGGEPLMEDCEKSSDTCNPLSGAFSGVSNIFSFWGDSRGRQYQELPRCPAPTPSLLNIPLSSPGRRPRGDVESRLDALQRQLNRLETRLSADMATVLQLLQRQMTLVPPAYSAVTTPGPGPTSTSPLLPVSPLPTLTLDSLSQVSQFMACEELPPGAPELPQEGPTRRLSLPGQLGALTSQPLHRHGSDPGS

| Structure (SMILES) | hERG current change (%, negative = inhibition) at 1uM |
| --- | --- |
| O=C1c2ccccc2S(=O)(=O)N1Cc1nc2ccccc2s1 | 2.32% |
| Cc1cccc(-n2c(N)c(-c3nc4ccccc4n3C)c3nc4ccccc4nc32)c1 | 4.83% |
| O=C(Nc1ccc(Cl)cc1)c1ccc2c(c1)OCO2 | 18.8% |
| CCNC(=S)NN(c1ccccc1)c1ccccc1 | 8.24% |
| N#Cc1c(-c2ccccc2)nc(-c2cccnc2)[nH]c1=O | 17.6% |
| C=C(C)Cn1c(=O)c2c(nc3n2CCCN3Cc2ccccc2)n(C)c1=O | 2.67% |
| CCN(C(=O)COC(=O)c1ccc(Cl)cc1N)C1CCCCC1 | -0.094% |
| CCc1ccc(-c2cc(C)no2)cc1S(=O)(=O)N1CC(=O)Nc2ccccc21 | 7.97% |
| COc1ccc([N+](=O)[O-])cc1NC(=O)C1CCCNC1=O (stereo not drawn) | 6.16% |
| Cc1ccc(S(=O)(=O)C2C(=O)NC3(C)CC2c2ccccc2O3)cc1 (stereo not drawn) | 8.54% |
| CS(=O)(=O)c1ccc(Cl)c(NC(=O)COC(=O)CNC(=O)c2cccs2)c1 | 0.477% |
| Cc1cccc(CSc2nnc(NC(=O)c3ccco3)s2)c1 | 1.97% |
| COc1cc2c(cc1OC)C(C)N(C(=O)Nc1ccc(F)cc1)CC2 (stereo not drawn) | 7.11% |
| Cc1nc(N2CCN(C(=O)CCC(=O)O)CC2)c2c(C)c(C)sc2n1 | -4.32% |
| COc1ccc(CN(C)S(=O)(=O)c2ccc3c(c2)OCCO3)cc1 | 0.474% |
| COCc1cc(C)n(CC(=O)Nc2ccccc2C(=O)OC)c(=O)c1C#N | 10.1% |
| COc1ccc(CNC(=O)CN2C(=O)C(C)N(c3ccc(C)cc3)C2=O)cc1 (stereo not drawn) | 4.88% |
| Cc1ccc(S(=O)(=O)N2CCCCC2)cc1C(=O)Nc1ccc(S(=O)(=O)Nc2ncccn2)cc1 | 10% |
| COc1cc(C(=O)OCC(=O)NC(=O)NCc2ccccc2)ccc1OC(F)F | 14.4% |
| CN1CCc2c(sc(NC(=O)C3COc4ccccc4O3)c2C(N)=O)C1.Cl (stereo not drawn) | -6.24% |
| Cc1ccc(N/C=C(\C#N)c2ccc(OCCCF)cc2)cc1 | 5.99% |
| CNC(=O)NC(=O)Cn1nc2n(c1=O)-c1ccccc1SC2 | 8.89% |
| COc1cc(CN2CCN(Cc3ccc(SC)cc3)CC2)cc(OC)c1O.O=C(O)C(=O)O | -20.8% |

| Structure (SMILES) | hERG current change (%, negative = inhibition) at 1uM |
| --- | --- |
| C=CCNC(=O)COc1coc(CN2CCN(Cc3ccccc3)CC2)cc1=O | 5.17% |
| CCOc1cc(CNn2nnnc2N)cc(Cl)c1OCC(=O)NC(C)(C)C | -4.94% |
| CCOc1ccc(NC(=S)Nc2ccccc2C2CC2)cc1 | 12% |
| CCCCSc1nnc(-c2c[nH]c3ccccc23)n1C | -1.83% |
| COc1ccc2cc(CN(CC3CCCO3)S(=O)(=O)c3ccccc3)c(=O)[nH]c2c1 (stereo not drawn) | 3.71% |
| N#C/C(=C/c1ccc(N2CCCCC2)cc1)c1cccc(F)c1 | 3.4% |
| CCC(C)NC(=O)C1CCCN(S(=O)(=O)c2ccc3c(c2)CC(C)N3C(C)=O)C1 (stereo not drawn) | -4.49% |
| O=C(NCc1ccco1)c1cc(-c2cccnc2)nc2ccccc12 | -5.6% |
| O=C(Nc1ccccc1)c1cc(S(=O)(=O)Nc2cccnc2)ccc1Cl | 3.29% |
| Cc1nnc(C)n1N1C(=O)c2cccc3cccc(c23)C1=O | 2.26% |
| COc1cccc(OCC(=O)Nc2ccccc2C(=O)Nc2ccc(C(=O)O)cc2)c1 | 15.6% |
| CC(C(=O)N1CCCC1)N1CCN(S(=O)(=O)c2ccc(OC(F)(F)F)cc2)CC1 (stereo not drawn) | -3.11% |
| CCCn1c(C)cc(/C=C(\C#N)C(=O)OCC(=O)N(C)c2c(N)n(Cc3ccccc3)c(=O)[nH]c2=O)c1C | 11% |
| COC(=O)C1=C(N)Oc2cc(C)n(Cc3ccncc3)c(=O)c2C1c1cccnc1 (stereo not drawn) | 0.872% |
| OC1CCNC(=S)N1c1ccccc1 (stereo not drawn) | 5.64% |
| COc1cccc(NC(=O)CN2C(=O)COc3ccc(S(=O)(=O)N4CCC(C)CC4)cc32)c1 | 6.58% |
| O=C(NCCSc1c[nH]c2ccccc12)c1c(F)cccc1F | -2.75% |
| O=C(COc1nnnc2ccccc12)N1CCCc2ccccc21 | -8.94% |
| Cc1cc(N/C=C\C(=O)c2ccc(Cl)c(Cl)c2)no1 | 6.94% |
| Cc1cc(C)c(NC(=O)CN(C)S(=O)(=O)c2ccc3c(c2)n(C)c(=O)c(=O)n3C)c(C)c1 | 9.07% |
| Cc1ccc(CN2CC(C(=O)NC3CCCC(C)C3C)CC2=O)cc1 (stereo not drawn) | -30.4% |
| Cc1cc2c(cn1)C(CCC#N)(CCC#N)c1ccccc1-2 | 15% |
